Data from paper PMC4336329 (PLoS ONE, 2015).
Out of some 310,000 compounds screened, about 2,200 (0.71%) showed an effect of 50% or more. Effects have a minus sign here. The list shows a part of the results.

Each molecule was assayed against human ether-à-go-go-related gene (hERG) potassium channel (human, UniProt Q12809) (assay: primary screen, population patch clamp on CHO cells stably expressing hERG).
Sequence of human ether-à-go-go-related gene (hERG) potassium channel (Q12809 whole entry, looked up): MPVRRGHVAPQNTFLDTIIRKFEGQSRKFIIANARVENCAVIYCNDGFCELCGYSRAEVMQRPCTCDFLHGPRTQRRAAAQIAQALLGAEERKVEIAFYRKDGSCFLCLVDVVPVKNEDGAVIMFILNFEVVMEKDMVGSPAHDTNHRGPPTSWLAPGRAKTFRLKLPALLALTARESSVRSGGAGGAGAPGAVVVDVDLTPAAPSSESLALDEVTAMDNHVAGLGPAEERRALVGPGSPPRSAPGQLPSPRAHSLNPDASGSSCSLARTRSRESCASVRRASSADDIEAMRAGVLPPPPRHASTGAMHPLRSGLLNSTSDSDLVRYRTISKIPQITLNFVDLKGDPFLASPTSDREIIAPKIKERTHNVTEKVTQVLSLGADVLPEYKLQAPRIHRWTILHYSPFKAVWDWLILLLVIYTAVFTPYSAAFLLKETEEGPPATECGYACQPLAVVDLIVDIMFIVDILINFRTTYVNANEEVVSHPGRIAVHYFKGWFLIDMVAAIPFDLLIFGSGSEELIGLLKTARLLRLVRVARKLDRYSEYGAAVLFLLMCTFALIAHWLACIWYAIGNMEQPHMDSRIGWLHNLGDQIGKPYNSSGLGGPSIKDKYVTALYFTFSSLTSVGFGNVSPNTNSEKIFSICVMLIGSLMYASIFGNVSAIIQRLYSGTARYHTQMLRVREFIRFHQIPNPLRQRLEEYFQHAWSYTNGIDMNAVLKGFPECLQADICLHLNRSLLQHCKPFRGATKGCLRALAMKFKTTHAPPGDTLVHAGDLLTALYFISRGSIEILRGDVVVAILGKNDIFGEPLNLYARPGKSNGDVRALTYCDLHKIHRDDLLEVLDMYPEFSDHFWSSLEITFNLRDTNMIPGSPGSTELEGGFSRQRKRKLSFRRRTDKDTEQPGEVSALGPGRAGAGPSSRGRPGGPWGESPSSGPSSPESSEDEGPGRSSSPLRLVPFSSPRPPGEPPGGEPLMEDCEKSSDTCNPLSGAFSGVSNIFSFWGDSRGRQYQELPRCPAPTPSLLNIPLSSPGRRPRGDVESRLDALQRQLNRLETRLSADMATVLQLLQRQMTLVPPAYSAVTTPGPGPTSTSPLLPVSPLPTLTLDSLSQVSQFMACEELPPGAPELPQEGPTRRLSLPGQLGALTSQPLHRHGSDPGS
In the case of O=C(N/N=C/c1ccc2ncccc2c1)c1ccco1, the “hERG current change (%, negative = inhibition) at 1uM” value is reported as 3.7%.
In the case of Cc1ccn2cc(C(=O)N3CCN(c4cnn(-c5ccccc5)c(=O)c4Cl)CC3)nc2c1, the “hERG current change (%, negative = inhibition) at 1uM” value is reported as -3.73%.
With COc1cccc(SCC2CSc3nc4ccccc4c(=O)n32)c1 (stereo not drawn) the “hERG current change (%, negative = inhibition) at 1uM” value was 1.51%.
With CC(C)(C)c1ccc(SCCc2ccccn2)cc1 the “hERG current change (%, negative = inhibition) at 1uM” value was 11.7%.
For O=C(Nc1ccc(F)cc1)c1cccc2ccccc12, the “hERG current change (%, negative = inhibition) at 1uM” value was 17%.
With O=C(NCC(=O)N(Cc1ccco1)C(C(=O)NC1CCCCC1)c1ccncc1)c1cccs1 (stereo not drawn) the “hERG current change (%, negative = inhibition) at 1uM” value was 5.06%.
For CN1CCN(c2ccc(NC(=O)c3cccc(S(=O)(=O)N4CCCC4)c3)cc2)CC1, the “hERG current change (%, negative = inhibition) at 1uM” value was 13.3%.
COC(=O)/C(=C/Nc1cccc2ccccc12)[N+](=O)[O-] was tested, and the “hERG current change (%, negative = inhibition) at 1uM” value was -3.86%.
For Cl.O=C(O)CC1(CC(=O)N2CCN(CCO)CC2)CCCC1, the “hERG current change (%, negative = inhibition) at 1uM” value was -0.0866%.
With CC(C)CC12CN3CCN(CC(C3)/C1=N/O)C2 the “hERG current change (%, negative = inhibition) at 1uM” value was 1%.
With Cc1ccc(N2/C(=N/c3nc(C)cc(C)n3)NC(=O)CC2C(=O)O)cc1 (stereo not drawn) the “hERG current change (%, negative = inhibition) at 1uM” value was 3.84%.
For COc1cc(C(=O)Nc2ccc(S(=O)(=O)N3CCCCC3C)cc2)cc(OC)c1OC (stereo not drawn), the “hERG current change (%, negative = inhibition) at 1uM” value was -10.7%.
For COc1ccc(/C=C/C(=O)Oc2ccc(/C=N/NC(=O)COc3c(C)cccc3C)cc2)cc1, the “hERG current change (%, negative = inhibition) at 1uM” value was 12.1%.
In the case of CN1CCN(C(=O)c2cc3c(=O)n4ccccc4nc3s2)CC1, the “hERG current change (%, negative = inhibition) at 1uM” value is reported as 3.82%.
With O=C(CCCc1nc(-c2ccccc2)no1)N1CCOCC1 the “hERG current change (%, negative = inhibition) at 1uM” value was 10.7%.
For COc1ccccc1NC(=O)CSC1=NCCN1.Cl, the “hERG current change (%, negative = inhibition) at 1uM” value was 13.8%.
O=C(Nc1ccc(C(=O)N2CCCC2)cc1)c1cccc(C(F)(F)F)c1 was tested, and the “hERG current change (%, negative = inhibition) at 1uM” value was 8.56%.
With CCOc1ccc(C(=O)NCCCN2CCOCC2)cc1OCC the “hERG current change (%, negative = inhibition) at 1uM” value was 15.8%.
O=C(NCc1ccccc1)c1cnc(Cl)c(Cl)c1 was tested, and the “hERG current change (%, negative = inhibition) at 1uM” value was 8.31%.
In the case of O=C(Cn1ncc2c1-c1ccccc1OC2)N1CCN(Cc2ccc3c(c2)OCO3)CC1, the “hERG current change (%, negative = inhibition) at 1uM” value is reported as -31%.
For CC(C)COc1ccc(C(=O)Nc2scc(-c3ccc(Cl)cc3Cl)c2C(N)=O)cc1, the “hERG current change (%, negative = inhibition) at 1uM” value was 10.1%.
For CCCCCCNC(=O)C(=O)NCCc1ccc(Cl)cc1, the “hERG current change (%, negative = inhibition) at 1uM” value was 9.73%.
In the case of Cc1ccc(C(C)C)c(OCC(=O)NC(=S)Nc2ccccc2N2CCOCC2)c1, the “hERG current change (%, negative = inhibition) at 1uM” value is reported as 6.15%.
O=S(=O)(N1CCOCC1)n1nnc2ccccc21 was tested, and the “hERG current change (%, negative = inhibition) at 1uM” value was 11.4%.
In the case of COC(=O)Cc1ccc(NC(=S)NCc2cccc(OC)c2)cc1, the “hERG current change (%, negative = inhibition) at 1uM” value is reported as 9.47%.
In the case of CNC(=O)C1CC(=O)N/C(=N/N=C(\C)c2cccs2)S1 (stereo not drawn), the “hERG current change (%, negative = inhibition) at 1uM” value is reported as 15.2%.
For CC(=O)Oc1c(-c2ccc(Br)o2)oc2ccccc2c1=O, the “hERG current change (%, negative = inhibition) at 1uM” value was 13%.
For CCN(CC)C(=O)CSc1nc(N)c(C#N)c(-c2cccs2)c1C#N, the “hERG current change (%, negative = inhibition) at 1uM” value was 15.7%.
With COc1cccc(Nc2nc3ccccc3n2C(C)C)c1 the “hERG current change (%, negative = inhibition) at 1uM” value was 16.5%.
CN(C(=O)COC(=O)c1c2c(nc3ccccc13)/C(=C/c1cccc([N+](=O)[O-])c1)CCC2)C1CCS(=O)(=O)C1 (stereo not drawn) was tested, and the “hERG current change (%, negative = inhibition) at 1uM” value was 0.789%.
COc1ccc(O)c(C2=Nc3ccccc3N=C(c3ccco3)C2)c1 was tested, and the “hERG current change (%, negative = inhibition) at 1uM” value was 10.5%.
In the case of C=CCn1c(Cc2c(C)[nH]c3ccccc23)nnc1SCC(=O)NCc1ccc(F)cc1, the “hERG current change (%, negative = inhibition) at 1uM” value is reported as 2.02%.
With O=c1c2c(nc3nc(COc4ccccc4)[nH]n13)CCC2 the “hERG current change (%, negative = inhibition) at 1uM” value was 4.63%.
In the case of CC1CCN(CC(O)COc2ccc(OCC(O)CN3CCC(C)CC3)cc2)CC1 (stereo not drawn), the “hERG current change (%, negative = inhibition) at 1uM” value is reported as 5.25%.
In the case of CCOc1cc(C(N)=O)cc(Br)c1OCc1ccccc1, the “hERG current change (%, negative = inhibition) at 1uM” value is reported as 9.16%.
C/C(=N/NS(=O)(=O)c1ccc(C)c(C)c1)c1ccncc1 was tested, and the “hERG current change (%, negative = inhibition) at 1uM” value was 6.5%.
In the case of COc1ccccc1N1CCN(C(=O)CSc2ccc3c(C)cc(C)nc3n2)CC1, the “hERG current change (%, negative = inhibition) at 1uM” value is reported as 7.83%.
CCC(=O)Nc1ccc(Cl)c(NC(=S)NC(=O)c2cc3ccccc3o2)c1 was tested, and the “hERG current change (%, negative = inhibition) at 1uM” value was 3.1%.
COc1ccc(NC(=O)CSc2ncccc2C(=O)OC(C)C)cc1OC was tested, and the “hERG current change (%, negative = inhibition) at 1uM” value was 4.36%.
Cc1ccc(S(=O)(=O)N/N=C\c2ccc(Cl)c([N+](=O)[O-])c2)cc1 was tested, and the “hERG current change (%, negative = inhibition) at 1uM” value was 21%.
In the case of CCC(=O)N1CCc2cc(OC)c(OC)cc2C1COc1ccc(F)cc1 (stereo not drawn), the “hERG current change (%, negative = inhibition) at 1uM” value is reported as 8.59%.
For CCOC(=O)c1c(/N=C/N(C)C)sc(C(=O)OC)c1C, the “hERG current change (%, negative = inhibition) at 1uM” value was 10.9%.
CSc1nc2ncc(C#N)cn2n1 was tested, and the “hERG current change (%, negative = inhibition) at 1uM” value was 14.2%.
For CN1CCN(CCc2cn3ncc(C#N)c3nc2-c2ccc(F)cc2)CC1, the “hERG current change (%, negative = inhibition) at 1uM” value was 0.111%.
For Cn1c(SCC2CCCO2)nnc1-c1cccc([N+](=O)[O-])c1 (stereo not drawn), the “hERG current change (%, negative = inhibition) at 1uM” value was 16.7%.
For Cc1c(N=C2N=C(NC(=O)c3cccs3)c3ccccc32)c(=O)n(-c2ccccc2)n1C, the “hERG current change (%, negative = inhibition) at 1uM” value was 2.36%.
For Cc1ccc(C(=O)NC(NCc2ccco2)C(Cl)(Cl)Cl)cc1 (stereo not drawn), the “hERG current change (%, negative = inhibition) at 1uM” value was 8.23%.
Cc1c(C2N3CC4(C)CN2CC(C)(C3)C4=O)c2ccccc2n1C (stereo not drawn) was tested, and the “hERG current change (%, negative = inhibition) at 1uM” value was -15.5%.
For CCN(CCCNC(=O)C1CCCN(S(=O)(=O)c2cnc[nH]2)C1)c1ccccc1 (stereo not drawn), the “hERG current change (%, negative = inhibition) at 1uM” value was 4.47%.
With COc1cccc(-n2c(C)nnc2SCC(=O)Nc2ccccc2N2CCOCC2)c1 the “hERG current change (%, negative = inhibition) at 1uM” value was -11.9%.
For COC(=O)c1ccccc1S(=O)(=O)N(Cc1cc2ccc(OC)cc2[nH]c1=O)CC1CCCO1 (stereo not drawn), the “hERG current change (%, negative = inhibition) at 1uM” value was -1.66%.
In the case of COC(=O)c1[nH]c2cccc(OC)c2c1NC(=O)CCN1CCC(C(N)=O)CC1, the “hERG current change (%, negative = inhibition) at 1uM” value is reported as -0.381%.
CCOC(=O)c1cn(Cc2cccc(Cl)c2)c2cc(C)nn2c1=O was tested, and the “hERG current change (%, negative = inhibition) at 1uM” value was -0.36%.
With O=C(c1ccc(Cl)s1)N(Cc1nnc(-c2ccccc2Cl)o1)C1CC1 the “hERG current change (%, negative = inhibition) at 1uM” value was 11.3%.
For CCOC(=O)NC(CC(=O)O)c1ccc(OCC)cc1 (stereo not drawn), the “hERG current change (%, negative = inhibition) at 1uM” value was 0.656%.
With CC1Oc2ccccc2C(=O)N(CC(=O)c2ccc3c(c2)OCCO3)C1=O (stereo not drawn) the “hERG current change (%, negative = inhibition) at 1uM” value was 11.5%.
With Cn1ccnc1SCC(=O)NC1CCCCC1 the “hERG current change (%, negative = inhibition) at 1uM” value was 16.4%.
